From ChEMBL document CHEMBL1201862, “PubChem BioAssay data set” (2004) come the findings set out here.

Molecules are shown by their SMILES.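 Where inhibition never reached the appropriate level, the endpoint shown equals the highest concentration tested. Otherwise, values were interpolated linearly from a five-concentration, 48-hour dose response in 96-well plates. GI50 is the concentration that inhibits growth by half.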 Active and inactive are the calls of the source. No stated cut-off is given here; in the data, active = GI50 up to about 1.1 µM and inactive = higher. Square brackets hold non-standard residues; d marks the D form. Peptide text beside a SMILES is read from it. * marks the point of attachment. ξ: configuration not given here. Phe(4-NO2) = N[CH](Cc1ccc([N+](=O)[O-])cc1)C(=O)O; X17 = COc1ccc(C(N*)c2ccc(OC)cc2)cc1; NMeF = CN[CH](Cc1ccccc1)C(=O)O; Ethyl(2-NMe3+) = C[N+](C)(C)CC*; NMeD = CN[C@@H](CC(=O)O)C(=O)O; NMeN = CN[C@@H](CC(N)=O)C(=O)O; Chg = N[CH](C(=O)O)C1CCCCC1; NMeAc5c = CNC1(C(=O)O)CCCC1; NMeV = CN[CH](C(=O)O)C(C)C; ξNMeN = CNC(CC(N)=O)C(=O)O; NMeA = CN[C@@H](C)C(=O)O; ξNMeV = CNC(C(=O)O)C(C)C; Ac5c = NC1(C(=O)O)CCCC1; hSer = N[CH](CCO)C(=O)O; Cbz = O=C(OCc1ccccc1)*; ξD = NC(CC(=O)O)C(=O)O; Boc = CC(C)(C)OC(=O)*; OSu = O=C1CCC(=O)N1O*; Aib = CC(C)(N)C(=O)O; ξNMeA = CNC(C)C(=O)O; ξV = CC(C)C(N)C(=O)O; Bz = O=C(c1ccccc1)*; OBn = c1ccc(CO*)cc1; Bn = c1ccc(C*)cc1; tBu = CC(C)(C)*

The test has as its system NCI-H322M. The test is described as follows: NCI tumour cell line growth inhibition, 48 h.
For `COCCC(NC(=O)C(CC(C)C)NC(=O)OC(C)(C)C)C(N)=O` (stereo not drawn) (Boc-Leu-[hSer](Me)-NH2; configuration not given here), the GI50 is inactive: > 100 µM.
Next, `CC(C)CC(NC(=O)C(Cc1ccccc1)NC(=O)C(Cc1ccccc1)NC(=O)OC(C)(C)C)C(=O)OCc1ccccc1` (stereo not drawn) (Boc-Phe-Phe-Leu-OBn; configuration not given here): inactive: > 100 µM; `CN(C(=O)C(Cc1ccccc1)NC(=O)OC(C)(C)C)C1(C(=O)NC(Cc2ccccc2)C(=O)OCc2ccccc2)CCCC1` (stereo not drawn) (Boc-Phe-[NMeAc5c]-Phe-OBn; configuration not given here): inactive: > 100 µM; `CNC(=O)C(CC(C)C)NC(=O)C(C)NC(=O)C(Cc1ccc(OCc2ccccc2)cc1)NC(=O)C(COCc1ccccc1)NC(=O)OC(C)(C)C` (stereo unspecified) (Boc-S(Bn)Y(Bn)AL-NHMe; configuration not given here): inactive: > 100 µM.
Turning to `CC(C)(C)OC(=O)NC(Cc1ccc(OCc2ccccc2)cc1)C(=O)NC(CCCCNC(=O)OCc1ccccc1)C(=O)NC(CCCCNC(=O)OCc1ccccc1)C(=O)ON1C(=O)CCC1=O` (stereo unspecified) (Boc-Tyr(Bn)-Lys(Cbz)-Lys(Cbz)-OSu; configuration not given here), the GI50 is inactive: 45.6 µM.
Next, `CC(C)(C)OC(=O)NC(Cc1ccc(O)cc1)C(=O)N1CCCC1C(=O)O` (stereo not drawn) (Boc-Tyr-Pro-OH; configuration not given here): inactive: > 100 µM; `COC(=O)[C@H](C)N(C)C(=O)C(CC(N)=O)N(C)C(=O)[C@H](Cc1ccccc1)N(C)C(=O)[C@@H]1CCCN1C(=O)[C@H](C(C)C)N(C)C(=O)C(C(C)C)N(C)C(=O)[C@@H](NC(=O)OC(C)(C)C)C(C)C` (stereo partly specified) (Boc-V[ξNMeV][NMeV]P[NMeF][ξNMeN][NMeA]-OMe): inactive: > 50 µM.
To `COC(=O)C(C)N(C)C(=O)[C@H](CC(N)=O)N(C)C(=O)[C@@H]1CCCN1C(=O)[C@H](C(C)C)N(C)C(=O)C(C(C)C)N(C)C(=O)[C@@H](NC(=O)OC(C)(C)C)C(C)C` (stereo partly specified) (Boc-V[ξNMeV][NMeV]P[NMeN][ξNMeA]-OMe) belongs inactive: > 50 µM; to `CC(NC(=O)C(NC(=O)OC(C)(C)C)C(C)C)C(=O)NCC(=O)O` (stereo not drawn) (Boc-Val-Ala-Gly-OH; configuration not given here), inactive: > 100 µM.
For the molecule `CC(NC(=O)C(NC(=O)OC(C)(C)C)C(C)C)C(=O)NCC(=O)ON1C(=O)CCC1=O` (stereo not drawn) (Boc-Val-Ala-Gly-OSu; configuration not given here), the GI50 was inactive: > 100 µM.
To `CC(C)C(NC(=O)OC(C)(C)C)C(=O)N(C)C(Cc1ccccc1)C(=O)N(C)C(C(=O)O)C(C)C` (stereo not drawn) (Boc-Val-[NMeF]-[NMeV]-OH; configuration not given here) belongs inactive: > 100 µM; to `CC(NC(=O)C(Cc1ccc(OC(=O)c2ccccc2)cc1)NC(=O)OC(C)(C)C)C(=O)NC(Cc1ccccc1)C(=O)NCC(N)=O` (stereo unspecified) (Boc-Y(Bz)AFG-NH2; configuration not given here), inactive: 19.4 µM.
Next, `CC(NC(=O)C(Cc1ccc(OCC[N+](C)(C)C)cc1)NC(=O)OC(C)(C)C)C(=O)NC(Cc1ccccc1)C(=O)NCC(N)=O` (stereo unspecified) (Boc-Y(Ethyl(2-NMe3+))AFG-NH2; configuration not given here): inactive: 11.3 µM.
Turning to `CC(C)(C)OC(=O)NC(CC(=O)OCc1ccccc1)C(=O)NC(C)(C)C(N)=O` (stereo unspecified) (Boc-[ξD](OBn)-[Aib]-NH2), the GI50 is inactive: > 100 µM.
To `COc1ccc(C(NC(=O)C[C@@H](C(=O)N(C)C(C)C(=O)O)N(C)C(=O)[C@@H]2CCCN2C(=O)[C@H](C(C)C)N(C)C(=O)C(C(C)C)N(C)C(=O)[C@H](Cc2ccccc2)N(C)C(=O)C(NC(=O)OC(C)(C)C)C(C)C)c2ccc(OC)cc2)cc1` (stereo partly specified) (Boc-[ξV][NMeF][ξNMeV][NMeV]P[NMeD](X17)[ξNMeA]-OH) belongs inactive: 14.8 µM.
On to `COC(=O)C(C)N(C)C(=O)[C@H](CC(N)=O)N(C)C(=O)[C@@H]1CCCN1C(=O)[C@H](C(C)C)N(C)C(=O)C(C(C)C)N(C)C(=O)[C@H](Cc1ccccc1)N(C)C(=O)C(NC(=O)OC(C)(C)C)C(C)C` (stereo partly specified) (Boc-[ξV][NMeF][ξNMeV][NMeV]P[NMeN][ξNMeA]-OMe), for which the GI50 is inactive: 20.3 µM.
Next, `CCOC(=O)C(C)NC(=O)C(C)NC(=O)C(C)NC(=O)C(C)NC(=O)C(C)NC(=O)C(C)NC(=O)C(C)NC(=O)OCc1ccccc1` (stereo unspecified) (Cbz-AAAAAAA-OEt; configuration not given here): inactive: > 100 µM; `COC(=O)CNC(=O)C(C)NC(=O)C(CC(=O)OCc1ccccc1)NC(=O)OCc1ccccc1` (stereo not drawn) (Cbz-Asp(OBn)-Ala-Gly-OMe; configuration not given here): inactive: > 100 µM; `CC(NC(=O)C(C)(C)NC(=O)C(CC(=O)OCc1ccccc1)NC(=O)OCc1ccccc1)C(N)=O` (stereo unspecified) (Cbz-Asp(OBn)-[Aib]-Ala-NH2; configuration not given here): inactive: > 100 µM.
To `COC(=O)C(NC(=O)C(CC(=O)OCc1ccccc1)NC(=O)OCc1ccccc1)C1CCCCC1` (stereo unspecified) (Cbz-Asp(OBn)-[Chg]-OMe; configuration not given here) belongs inactive: > 100 µM; to `CCOC(=O)CCC(NC(=O)OCc1ccccc1)C(=O)NC(CCC(=O)OCC)C(=O)NC(CCC(=O)OCC)C(=O)NC(CCC(=O)OCC)C(=O)NC(CCC(=O)OCC)C(=O)NC(Cc1ccc([N+](=O)[O-])cc1)C(=O)NC(CCC(=O)OCC)C(=O)NC(CCC(=O)OCC)C(=O)NC(CCC(=O)OCC)C(=O)NC(CCC(=O)OCC)C(=O)NC(CCC(=O)OCC)C(=O)OCC` (stereo unspecified) (Cbz-E(OEt)E(OEt)E(OEt)E(OEt)E(OEt)[Phe(4-NO2)]E(OEt)E(OEt)E(OEt)E(OEt)E(OEt)-OEt; configuration not given here), inactive: > 50 µM.
With `CCOC(=O)CCC(NC(=O)CNC(=O)CNC(=O)C(CCC(=O)OCC)NC(=O)C(CCC(=O)OCC)NC(=O)C(CCC(=O)OCC)NC(=O)OCc1ccccc1)C(=O)NC(CCC(=O)OCC)C(=O)NC(CCC(=O)OCC)C(=O)OCC` (stereo unspecified) (Cbz-E(OEt)E(OEt)E(OEt)GGE(OEt)E(OEt)E(OEt)-OEt; configuration not given here), the GI50 is inactive: > 75 µM.
For `CC(OC(C)(C)C)C(NC(=O)C(CCCCNC(=O)OC(C)(C)C)NC(=O)C(Cc1c[nH]c2ccccc12)NC(=O)C(Cc1ccccc1)NC(=O)OCc1ccccc1)C(=O)NC(Cc1ccccc1)C(=O)O` (stereo unspecified) (Cbz-FWK(Boc)T(tBu)F-OH; configuration not given here), the GI50 is inactive: 38.1 µM.
In the case of `COC(=O)C1(NC(=O)C(Cc2ccccc2)NC(=O)C(NC(=O)C(CCCCNC(=O)OC(C)(C)C)NC(=O)C(Cc2c[nH]c3ccccc23)NC(=O)C(Cc2ccccc2)NC(=O)OCc2ccccc2)C(C)OC(C)(C)C)CCCC1` (stereo unspecified) (Cbz-FWK(Boc)T(tBu)F[Ac5c]-OMe; configuration not given here), the GI50 was inactive: > 100 µM.
To `CCOC(=O)CCC(NC(=O)OCc1ccccc1)C(=O)NC(CCC(=O)OCC)C(=O)OCC` (stereo unspecified) (Cbz-Glu(OEt)-Glu(OEt)-OEt; configuration not given here) belongs inactive: > 100 µM; to `O=C(O)CCC(NC(=O)OCc1ccccc1)C(=O)NC(Cc1c[nH]cn1)C(=O)O` (stereo not drawn) (Cbz-Glu-His-OH; configuration not given here), inactive: > 100 µM.
